The campaign covered roughly 370,000 compounds. About 150 (0.041%) were called active. The inconclusive results got no clear call from the source; some entries with a clear call stand among them for comparison. The call rests on the fitted dose curve; in most records, active means well fitted inhibition curve with a large enough effect; inconclusive means small, poorly fitted or top-dose-only effect; inactive means flat fitted curve, though single readings scatter. Potencies of inconclusive entries are left out as doubtful fits.
biological target: Beta-lactamase (Escherichia coli (strain K12)) (UniProt P00811); experiment: qHTS Inhibitors of AmpC Beta-Lactamase (assay with detergent); conditions: AmpC hydrolysis of nitrocefin, absorbance 480 nm, 0.01% Triton; series mostly up to 114 µM; further: nearly all actives have a fitted effect of over 25% in size
How it was run: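 20 mM phosphate pH 7.0 + 0.01% (detergent screen) or 0.0001% Triton X-100; 5.3 nM AmpC reagent; cpd preinc 15 min RT; nitrocefin (800 uM stock) to start; A480 q20 s × 4 min; Activity was normalised to no-enzyme and no-compound control wells.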
Potency means the concentration at half of the fitted maximal effect; tags describe the fitted curve by direction and shape.

Chain of UniProt P00811 (P00811 whole entry, looked up): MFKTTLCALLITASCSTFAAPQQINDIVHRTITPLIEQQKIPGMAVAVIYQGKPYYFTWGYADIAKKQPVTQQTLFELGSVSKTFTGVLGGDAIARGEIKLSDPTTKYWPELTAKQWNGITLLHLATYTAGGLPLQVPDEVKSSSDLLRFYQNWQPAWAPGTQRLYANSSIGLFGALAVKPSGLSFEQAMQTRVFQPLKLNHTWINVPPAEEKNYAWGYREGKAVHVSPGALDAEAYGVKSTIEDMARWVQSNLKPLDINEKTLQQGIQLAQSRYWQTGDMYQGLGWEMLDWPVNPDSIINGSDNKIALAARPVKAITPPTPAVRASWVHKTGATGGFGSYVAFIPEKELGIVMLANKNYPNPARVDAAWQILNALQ

Row | Compound | Potency
1 | CCOc1ccc(CCNC(=O)C2CCN(c3nn4c(=O)cc(C)nc4s3)CC2)cc1OCC | inconclusive [inhibitor, full curve, poor fit]
2 | CN1CCN(C(=O)/C=C/c2c(F)cccc2Cl)CC1 | inconclusive [inhibitor, full curve]
3 | CC1(C)CC(=O)C2=C(C1)NC1=C(C(=O)c3ccccc31)C2c1ccccc1 (stereo unspecified) | inactive
4 | COc1ccccc1NC(=O)c1cccc(NC(=O)c2ccco2)c1 | inconclusive [inhibitor, single point]
5 | CCCCc1nc(SCC(=O)N2CCOCC2)c2c(=O)n(C)c(=O)n(C)c2n1 | inactive
6 | CC(C)(C)c1cc([N+](=O)[O-])cc(C(C)(C)C)c1O | inactive
7 | Cc1ccc(NC(=O)c2cnn(-c3ccccc3)c2C)c(C)c1 | inconclusive [inhibitor, full curve]
8 | C#CCOC(=O)C(NC(=O)c1ccccc1)=C1CCCCC1 | inconclusive [inhibitor, single point]
9 | CCC(C)[C@H](NC(=O)N1CCn2c1nc1ccccc12)C(=O)NCCc1ccc(OC)c(OC)c1 (stereo partly specified) | inconclusive [inhibitor, full curve, poor fit]
10 | CCOc1ccccc1NC(=O)COC(=O)c1ccc(S(=O)(=O)N2CCCC2)cc1 | inconclusive [inhibitor, full curve, poor fit]
11 | O=C(N/N=C/c1ccc(O)cc1)c1cccc(C(F)(F)F)c1 | inactive
12 | COc1ccccc1-n1cnnc1SCC(=O)Nc1cccc(S(=O)(=O)N2CCCCC2)c1 | inconclusive [inhibitor, partial curve, poor fit]
13 | O=C(NNc1nc(-c2ccc(Cl)cc2)cs1)c1ccco1 | inactive
14 | CSc1ccc(S(=O)(=O)NCC(=O)OC2CCOC2=O)cc1[N+](=O)[O-] (stereo unspecified) | inconclusive [inhibitor, full curve, poor fit]
15 | CCN1CCN(C(=O)CN(C)S(=O)(=O)c2ccc(Cl)cc2)CC1 | inconclusive [inhibitor, partial curve, poor fit]
16 | CCCN1C(=O)/C(=C/c2nc3ccccc3c(=O)[nH]2)c2ccccc21 | inactive
17 | COc1cc(C(CCN2CCOCC2)c2c(OC)cc(OC)c3c2OC(=O)CC3c2ccc(N(C)C)cc2)cc(OC)c1OC (stereo unspecified) | inactive
18 | CCn1cc(CN(C)S(=O)(=O)c2ccc3ccccc3c2)c(C)n1 | inactive
19 | O=C(COC(=O)c1ccc([N+](=O)[O-])cc1Cl)NC(=O)c1ccccc1 | inconclusive [inhibitor, full curve, poor fit]
20 | COc1ccc(NC(=O)CSCC(=O)Nc2cccc3ncccc23)cc1 | inconclusive [inhibitor, partial curve]
21 | CCCc1ccc(OCC(O)CN2CCc3ccccc3C2)cc1 (stereo unspecified) | inconclusive [inhibitor, full curve, poor fit]
22 | COc1ccc(S(=O)(=O)N2CCOCC2)cc1NC(=O)Cc1ccc(Cl)c(Cl)c1 | inconclusive [inhibitor, full curve, poor fit]

Row | Compound | Potency
23 | O=C(NCCc1ccccn1)c1cc(-c2ccc(Cl)cc2)nc2ccccc12 | inconclusive [inhibitor, single point]
24 | Cc1cccc(OCC(=O)OCC(=O)N2CCCc3ccccc32)c1C | inconclusive [inhibitor, full curve, poor fit]
25 | O=C(CC(Nc1ccc(F)cc1)C(=O)OCC(=O)c1cccs1)c1ccccc1 (stereo unspecified) | inconclusive [inhibitor, full curve]
26 | O=C(NCc1ccc2c(c1)OCO2)c1ccc2c(c1)OCCO2 | inactive
27 | CCOc1ccc(OCC(=O)OCC(=O)N(CC(C)C)c2c(N)n(Cc3ccccc3)c(=O)[nH]c2=O)cc1 | inconclusive [inhibitor, full curve]
28 | CCOC(=O)c1c(C)[nH]c(C(=O)OCc2ccccc2F)c1C | inconclusive [inhibitor, single point]
29 | CCCCC(CC)CNC(=O)C(Cc1ccccc1)NS(=O)(=O)c1ccc2c(c1)CCC(=O)N2 (stereo unspecified) | inconclusive [inhibitor, partial curve]
30 | O=C(NC(=S)Nc1ccccc1F)c1ccc(Br)o1 | inconclusive [inhibitor, partial curve]
31 | Cc1ccc(Nc2ncnc3c2oc2ccccc23)cc1 | inconclusive [inhibitor, full curve, poor fit]
32 | NC(=O)c1cccc2c1-c1ccccc1/C2=N/NC(N)=S | inactive
33 | CC(C)(C)NC(=O)C1CCCN(S(=O)(=O)c2cccc3cccnc23)C1 (stereo unspecified) | inconclusive [inhibitor, full curve, poor fit]
34 | O=C(c1ccc2c(c1)N(Cc1ccccc1)C(=O)c1ccccc1S2(=O)=O)N1CCN(c2ccccc2)CC1 | inactive
35 | OCCC1CN(C2CCSCC2)CCN1C1CCCC1 (stereo unspecified) | inactive
36 | CN1OC[C@@H]2COc3ccc4ccccc4c3[C@@H]21 | inconclusive [inhibitor, full curve, poor fit]
37 | Cc1c(C(=O)N(Cc2ccc(N(C)C)cc2)C2CCS(=O)(=O)C2)oc2ccccc12 (stereo unspecified) | inconclusive [inhibitor, single point]
38 | CCOC(=O)CNC(=O)c1cc2c(=O)[nH]c3ccc(C)cc3c2s1 | inconclusive [inhibitor, partial curve, poor fit]
39 | CC[C@@]12C(=O)N(c3cccc(C)c3)C(=O)N1[C@H](c1ccc(OC)cc1)[C@@H]1C(=O)N(C(C)(C)C)C(=O)[C@@H]12 | inconclusive [inhibitor, full curve, poor fit]
40 | Cc1ccc(O)c(N=Nc2nccs2)c1 | inactive
41 | CCN(C(=O)C(=O)Nc1ccc2nc3n(c(=O)c2c1)CCCCC3)c1ccc(F)cc1 | inactive
42 | CC(Oc1ccc(Br)cc1)C(=O)Nc1ccc(S(=O)(=O)Nc2nccs2)cc1 (stereo unspecified) | inconclusive [inhibitor, single point]
43 | COC(=O)c1ccc(NC(=O)c2cccc(NC(=O)c3ccccc3)c2)cc1 | inconclusive [inhibitor, partial curve]
44 | COCCCNC(=O)COc1ccc(Cl)c(C)c1 | inactive

Row | Compound | Potency
45 | O=C(O)C1CC=CCC1C(=O)NCc1ccccc1 (stereo unspecified) | inconclusive [inhibitor, full curve, poor fit]
46 | O=C(O)CCC(=O)N1CCCC1 | inactive
47 | COc1ccc(-c2nnc(SC(C)C(=O)Nc3cccc(Cl)c3)o2)cc1 (stereo unspecified) | inconclusive [inhibitor, partial curve, poor fit]
48 | NCCCn1c(C(=O)c2cc(Cl)c(N)c(Cl)c2)c2ccc([N+](=O)[O-])cc2[n+]1[O-] | inactive
49 | Cn1c(SCc2n[nH]c(=S)n2-c2ccccc2)nnc1-c1ccccc1 | inconclusive [inhibitor, partial curve, poor fit]
50 | O=[N+]([O-])c1cccnc1Oc1ccc(OCc2ccccc2)cc1 | inactive
51 | CCc1ccc(N(C(=O)CCC(=O)Nc2cc(C)on2)C(C(=O)NC(C)(C)C)c2ccc(OC)cc2)cc1 (stereo unspecified) | inconclusive [inhibitor, full curve, poor fit]
52 | Cc1ccc(C)c2[nH]c(=O)c(CN(Cc3ccco3)S(=O)(=O)c3ccc4c(c3)OCCO4)cc12 | inconclusive [inhibitor, full curve]
53 | CC(=O)N1c2c(cc(Br)cc2S(=O)(=O)N2CCN(C(=O)c3ccco3)CC2)CC1C (stereo unspecified) | inconclusive [inhibitor, partial curve, poor fit]
54 | Cc1ccc(C)c(NC(=O)c2cc(S(=O)(=O)N3CCCCC3)ccc2N2CCOCC2)c1 | inactive
55 | C=C(C)COc1ccc(-c2[nH]ncc2-c2ccccc2OC)c(O)c1 | inconclusive [inhibitor, partial curve]
56 | COC(=O)C1CCN(C(=O)CCCOc2ccccc2)CC1 | inconclusive [inhibitor, partial curve, poor fit]
57 | CCNC(=S)N1CCN(CC(=O)Nc2ccc(Br)cc2)CC1 | inconclusive [inhibitor, full curve, poor fit]
58 | CCn1c(=NC(=O)c2ccc3c(c2)OCCO3)sc2c(C)ccc(OC)c21 | inactive
59 | CN(C)c1ccc(N=Cc2nc(-c3ccccc3)oc2OC(=O)c2ccccc2)cc1 | inconclusive [inhibitor, partial curve, poor fit]
60 | O=c1ccc(-c2ccc(S(=O)(=O)Nc3cccc(F)c3)o2)n[nH]1 | inconclusive [inhibitor, full curve]
61 | COc1ccc(NC(=S)NNC(=O)C2CC2c2ccc(C)cc2)cc1 (stereo unspecified) | inconclusive [inhibitor, full curve]
62 | COc1ccc(NC(=O)c2ccc3oc(=O)c(S(=O)(=O)c4ccc(C)cc4)cc3c2)cc1OC | inactive
63 | CCOC(=O)c1[nH]c(C)c(C(=O)NC2CCN(C(=O)OCC)CC2)c1C | inconclusive [inhibitor, single point]
64 | O=C(COC(=O)CNS(=O)(=O)c1cccc(F)c1)NCCc1ccccc1 | inconclusive [inhibitor, full curve, poor fit]
65 | CCOc1ccc(OCC)c(NC(=O)CSc2nc3cccnc3n2C)c1 | inconclusive [inhibitor, partial curve, poor fit]
66 | CCC1CSC(Nc2ccc(C(=O)/C=C/c3ccc(OC)c(OC)c3)cc2)=N1 (stereo unspecified) | inactive
